The supplement of paper PMC11741623
The other results are listed elsewhere or left out. Interaction screen of human proteins with wild-type SARS-CoV-2 proteins by split-DHFR complementation in yeast, 1 µg/mL methotrexate. Value = fitness of the pair (three or more lineages) minus that of the viral protein without a human partner, on a scale set by negative (0) and fused positive (1) controls, mean of up to three cultures; higher = more likely to interact. Active = false discovery rate below 0.05 (one-sided t-test) in at least one culture. Nearly all pairs are not hits, and differences among them are mostly noise (correlation between cultures about 0.3); most hits were seen in one culture only. Human sequences are the Swiss-Prot entries looked up by gene name; the clone may be another isoform. NSP2 values were corrected by the authors for a growth advantage. Listed are human proteins with a hit and a random twelfth of the others.

B1: CRH, P06850 (protein)
chain: MRLPLLVSAGVLLVALLPCPPCRALLSRGPVPGARQAPQHPQPLDFFQPPPQSEQPQQPQARPVLLRMGEEYFLRLGNLNKSPAAPLSPASSLLAGGSGSRPSPEQATANFFRVLLQQLLLPRRSLDSPAALAERGARNALGGHQEAPERERRSEEPPISLDLTFHLLREVLEMARAEQLAQQAHSNRKLMEIIGK
B2: KCMF1, Q9P0J7 (protein)
chain: MSRHEGVSCDACLKGNFRGRRYKCLICYDYDLCASCYESGATTTRHTTDHPMQCILTRVDFDLYYGGEAFSVEQPQSFTCPYCGKMGYTETSLQEHVTSEHAETSTEVICPICAALPGGDPNHVTDDFAAHLTLEHRAPRDLDESSGVRHVRRMFHPGRGLGGPRARRSNMHFTSSSTGGLSSSQSSYSPSNREAMDPIAELLSQLSGVRRSAGGQLNSSGPSASQLQQLQMQLQLERQHAQAARQQLETARNATRRTNTSSVTTTITQSTATTNIANTESSQQTLQNSQFLLTRLNDPKMSETERQSMESERADRSLFVQELLLSTLVREESSSSDEDDRGEMADFGAMGCVDIMPLDVALENLNLKESNKGNEPPPPPL
B3: NOA1, Q8NC60 (protein)
chain: MLPARLPFRLLSLFLRGSAPTAARHGLREPLLERRCAAASSFQHSSSLGRELPYDPVDTEGFGEGGDMQERFLFPEYILDPEPQPTREKQLQELQQQQEEEERQRQQRREERRQQNLRARSREHPVVGHPDPALPPSGVNCSGCGAELHCQDAGVPGYLPREKFLRTAEADGGLARTVCQRCWLLSHHRRALRLQVSREQYLELVSAALRRPGPSLVLYMVDLLDLPDALLPDLPALVGPKQLIVLGNKVDLLPQDAPGYRQRLRERLWEDCARAGLLLAPGHQGPQRPVKDEPQDGENPNPPNWSRTVVRDVRLISAKTGYGVEELISALQRSWRYRGDVYLVGATNAGKSTLFNTLLESDYCTAKGSEAIDRATISPWPGTTLNLLKFPICNPTPYRMFKRHQRLKKDSTQAEEDLSEQEQNQLNVLKKHGYVVGRVGRTFLYSEEQKDNIPFEFDADSLAFDMENDPVMGTHKSTKQVELTAQDVKDAHWFYDTPGITKENCILNLLTEKEVNIVLPTQSIVPRTFVLKPGMVLFLGAIGRIDFLQGNQSAWFTVVASNILPVHITSLDRADALYQKHAGHTLLQIPMGGKERMAGFPPLVAEDIMLKEGLGASEAVADIKFSSAGWVSVTPNFKDRLHLRGYTPEGTVLTVRPPLLPYIVNIKGQRIKKSVAYKTKKPPSLMYNVRKKKGKINV
B4: LZTS2, Q9BRK4 (protein)
chain: MAIVQTLPVPLEPAPEAATAPQAPVMGSVSSLISGRPCPGGPAPPRHHGPPGPTFFRQQDGLLRGGYEAQEPLCPAVPPRKAVPVTSFTYINEDFRTESPPSPSSDVEDAREQRAHNAHLRGPPPKLIPVSGKLEKNMEKILIRPTAFKPVLPKPRGAPSLPSFMGPRATGLSGSQGSLTQLFGGPASSSSSSSSSSAADKPLAFSGWASGCPSGTLSDSGRNSLSSLPTYSTGGAEPTTSSPGGHLPSHGSGRGALPGPARGVPTGPSHSDSGRSSSSKSTGSLGGRVAGGLLGSGTRASPDSSSCGERSPPPPPPPPSDEALLHCVLEGKLRDREAELQQLRDSLDENEATMCQAYEERQRHWQREREALREDCAAQAQRAQRAQQLLQLQVFQLQQEKRQLQDDFAQLLQEREQLERRCATLEREQRELGPRLEETKWEVCQKSGEISLLKQQLKESQAELVQKGSELVALRVALREARATLRVSEGRARGLQEAARARELELEACSQELQRHRQEAEQLREKAGQLDAEAAGLREPPVPPATADPFLLAESDEAKVQRAAAGVGGSLRAQVERLRVELQRERRRGEEQRDSFEGERLAWQAEKEQVIRYQKQLQHNYIQMYRRNRQLEQELQQLSLELEARELADLGLAEQAPCICLEEITATEI
B5: NDUFA4L2, Q9NRX3 (protein)
chain: MAGASLGARFYRQIKRHPGIIPMIGLICLGMGSAALYLLRLALRSPDVCWDRKNNPEPWNRLSPNDQYKFLAVSTDYKKLKKDRPDF

Target: SARS-CoV-2 E
Assay: yeast fitness gain over the viral ORF with no human partner (scaled fitness); higher = more likely to interact
Protocol: (§1)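 Split mouse DHFR complementation in pooled diploid yeast: human ORFeome clones carry one fragment and viral ORFs the other; barcoded lineages compete in 1 µg/mL methotrexate and fitness is read by barcode sequencing in up to three cultures.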

| Binder | yeast fitness gain |
| --- | --- |
| B1 | inactive: -0.0924 |
| B2 | inactive: -0.0461 |
| B3 | inactive: -0.175 |
| B4 | inactive: -0.111 |
| B5 | inactive: -0.112 |

Target: SARS-CoV-2 M
Assay: as above
Protocol: as §1

| Binder | yeast fitness gain |
| --- | --- |
| B1 | inactive: 0.0192 |
| B2 | inactive: -0.00854 |
| B3 | inactive: 0.0685 |
| B4 | inactive: -0.0917 |
| B5 | inactive: -0.0192 |

Target: SARS-CoV-2 N
Assay: as above
Protocol: as §1

| Binder | yeast fitness gain |
| --- | --- |
| B1 | inactive: -0.0859 |
| B2 | inactive: 0.0427 |
| B3 | inactive: -0.0119 |
| B5 | inactive: -0.149 |

Target: SARS-CoV-2 NSP1
Assay: as above
Protocol: as §1

| Binder | yeast fitness gain |
| --- | --- |
| B1 | inactive: -0.0238 |
| B2 | inactive: 0.0242 |
| B3 | inactive: -0.181 |
| B5 | inactive: 0.00169 |

Target: SARS-CoV-2 NSP10
Assay: as above
Protocol: as §1

| Binder | yeast fitness gain |
| --- | --- |
| B1 | inactive: 0.00484 |
| B2 | inactive: 0.0474 |
| B3 | inactive: -0.0444 |
| B4 | inactive: -0.191 |
| B5 | inactive: -0.00508 |

Target: SARS-CoV-2 NSP12
Assay: as above
Protocol: as §1

| Binder | yeast fitness gain |
| --- | --- |
| B1 | inactive: -0.00331 |
| B2 | inactive: 0.0371 |
| B3 | inactive: 0.0343 |
| B5 | inactive: 0.0189 |

Target: SARS-CoV-2 NSP13
Assay: as above
Protocol: as §1

| Binder | yeast fitness gain |
| --- | --- |
| B1 | inactive: -0.00145 |
| B2 | inactive: -0.00554 |
| B3 | inactive: 0.019 |
| B4 | inactive: -0.222 |
| B5 | inactive: -0.0293 |

Target: SARS-CoV-2 NSP14
Assay: as above
Protocol: as §1

| Binder | yeast fitness gain |
| --- | --- |
| B1 | inactive: -0.165 |
| B2 | inactive: -0.163 |
| B3 | inactive: 0.0348 |
| B5 | inactive: 0.0359 |

Target: SARS-CoV-2 NSP15
Assay: as above
Protocol: as §1

| Binder | yeast fitness gain |
| --- | --- |
| B1 | inactive: 0.0135 |
| B2 | inactive: -0.0309 |
| B5 | inactive: 0.0326 |

Target: SARS-CoV-2 NSP16
Assay: as above
Protocol: as §1

| Binder | yeast fitness gain |
| --- | --- |
| B1 | inactive: -0.0207 |
| B2 | inactive: -0.0298 |
| B3 | inactive: -0.0143 |
| B4 | inactive: -0.0229 |
| B5 | inactive: 0.0616 |

Target: SARS-CoV-2 NSP2
Assay: as above
Protocol: as §1

| Binder | yeast fitness gain |
| --- | --- |
| B1 | inactive: -0.161 |
| B2 | inactive: -0.0837 |
| B3 | inactive: -0.115 |
| B4 | inactive: -0.143 |
| B5 | inactive: -0.154 |

Target: SARS-CoV-2 NSP5
Assay: as above
Protocol: as §1

| Binder | yeast fitness gain |
| --- | --- |
| B1 | inactive: 0.0257 |
| B2 | inactive: 0.0239 |
| B3 | inactive: 0.014 |
| B4 | inactive: -0.107 |
| B5 | inactive: 0.00228 |

Target: SARS-CoV-2 NSP6
Assay: as above
Protocol: as §1

| Binder | yeast fitness gain |
| --- | --- |
| B1 | inactive: -0.0319 |
| B2 | inactive: -0.0502 |
| B3 | inactive: -0.000499 |
| B5 | inactive: -0.0277 |

Target: SARS-CoV-2 NSP7
Assay: as above
Protocol: as §1

| Binder | yeast fitness gain |
| --- | --- |
| B1 | inactive: 0.0675 |
| B2 | inactive: 0.0633 |
| B3 | inactive: 0.0487 |
| B4 | inactive: -0.156 |
| B5 | inactive: 0.00689 |

Target: SARS-CoV-2 NSP8
Assay: as above
Protocol: as §1

| Binder | yeast fitness gain |
| --- | --- |
| B1 | inactive: 0.0742 |
| B2 | inactive: 0.0512 |
| B3 | inactive: 0.0888 |
| B4 | inactive: -0.136 |
| B5 | inactive: 0.0329 |

Target: SARS-CoV-2 NSP9
Assay: as above
Protocol: as §1

| Binder | yeast fitness gain |
| --- | --- |
| B1 | inactive: -0.0545 |
| B2 | inactive: -0.0497 |
| B3 | inactive: 0.0308 |
| B5 | inactive: 0.021 |

Target: SARS-CoV-2 ORF10
Assay: as above
Protocol: as §1

| Binder | yeast fitness gain |
| --- | --- |
| B1 | inactive: -0.0167 |
| B2 | inactive: 0.0318 |
| B3 | inactive: -0.0607 |
| B5 | inactive: -0.0402 |

Target: SARS-CoV-2 ORF3A
Assay: as above
Protocol: as §1

| Binder | yeast fitness gain |
| --- | --- |
| B1 | inactive: 0.0182 |
| B2 | inactive: 0.0116 |
| B5 | inactive: 0.0869 |

Target: SARS-CoV-2 ORF3B
Assay: as above
Protocol: as §1

| Binder | yeast fitness gain |
| --- | --- |
| B1 | inactive: -0.0746 |
| B2 | inactive: 0.0248 |
| B3 | inactive: -0.0347 |
| B5 | inactive: 0.00596 |

Target: SARS-CoV-2 ORF6
Assay: as above
Protocol: as §1

| Binder | yeast fitness gain |
| --- | --- |
| B1 | inactive: 0.0165 |
| B2 | inactive: 0.012 |
| B3 | inactive: 0.0873 |
| B5 | inactive: 0.0349 |

Target: SARS-CoV-2 ORF7A
Assay: as above
Protocol: as §1

| Binder | yeast fitness gain |
| --- | --- |
| B1 | inactive: 0.076 |
| B2 | inactive: 0.0268 |
| B3 | inactive: -0.0249 |
| B4 | inactive: 0.0121 |
| B5 | inactive: -0.0154 |

Target: SARS-CoV-2 ORF7B
Assay: as above
Protocol: as §1

| Binder | yeast fitness gain |
| --- | --- |
| B1 | inactive: -0.101 |
| B2 | inactive: -0.029 |
| B3 | inactive: 0.0103 |
| B4 | inactive: -0.119 |
| B5 | inactive: 0.0313 |

Target: SARS-CoV-2 ORF8
Assay: as above
Protocol: as §1

| Binder | yeast fitness gain |
| --- | --- |
| B1 | inactive: -0.000435 |
| B2 | inactive: 0.0503 |
| B3 | inactive: -0.0406 |
| B4 | inactive: -0.2 |
| B5 | inactive: -0.0155 |

Target: SARS-CoV-2 ORF9B
Assay: as above
Protocol: as §1

| Binder | yeast fitness gain |
| --- | --- |
| B1 | inactive: -0.0229 |
| B2 | inactive: 0.0152 |
| B3 | inactive: 0.0758 |
| B4 | inactive: -0.113 |
| B5 | inactive: -0.00477 |

Target: SARS-CoV-2 ORF9Bwu (the 73-codon ORF)
Assay: as above
Protocol: as §1

| Binder | yeast fitness gain |
| --- | --- |
| B1 | inactive: -0.162 |
| B2 | inactive: 0.0347 |
| B3 | inactive: 0.0403 |
| B5 | inactive: 0.0132 |

Target: SARS-CoV-2 S
Assay: as above
Protocol: as §1

| Binder | yeast fitness gain |
| --- | --- |
| B1 | inactive: 0.0105 |
| B2 | inactive: 0.00116 |
| B3 | inactive: 0.00685 |
| B4 | inactive: -0.000562 |
| B5 | inactive: -0.0861 |

Target: SARS-CoV-2 NSP4
Assay: as above
Protocol: as §1

| Binder | yeast fitness gain |
| --- | --- |
| B2 | inactive: -0.0611 |
| B3 | inactive: -0.00621 |
| B5 | inactive: -0.107 |
